Measurements reported in the supplement of paper PMC10338343.
± gives the standard deviation. This is a selection; strong and weak results do not stand in their true shares.

System: MIWI (PIWIL1) piRISC loaded with L1MC piRNA (30 nt)
Test: pre-steady-state target cleavage rate (min^-1); MIWI and MILI are mouse PIWI proteins and EfPiwi is from a freshwater sponge; tags in brackets are library labels; higher = faster piRNA-guided slicing of the target
Details: guide: L1MC piRNA 5'p-UAACUAAAUACUAUGCAAGCUGUAGGUCCU
How it was run: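 Cleave-'n-Seq used a transcribed, DNA-blocked target RNA library at 0.1 nM and active affinity-purified piRISC with one synthetic guide at 1 nM, with or without 500 nM GTSF1 partner protein, in HEPES–potassium acetate buffer at 33 °C for 0–8 or 0–960 min. Uncleaved targets were sequenced and normalised to depth and to weakly complementary targets, and three trials were pooled with k3 capped at 0.0001 min^-1. The pre-steady-state cleavage rate was estimated by a burst-and-steady-state fit.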

[1] = auxiliary factor: 500 nM mouse GTSF1
[2] = auxiliary factor: none (no GTSF1)

Sequence	pre-steady-state target cleavage rate [1]	pre-steady-state target cleavage rate [2]
UCCUGGAUCAGCUUGCAUUGUAUUUAGAUA	0.218 ± 0.026	0.0101 ± 0.0031
UCCUGGAUGUGCUUGCAUAGUAUUUGGUUA	0.316 ± 0.022	0.0359 ± 0.009
UGGCCCUACAGCUUGCAUAGUAUUUAGUUA	1.39 ± 0.11	0.0833 ± 0.015
UCCUGGAUGUGCUUGCAUAGUAAUUAGUUA	0.0816 ± 0.011	0.0162 ± 0.0045
UCCACCUACAGCUUGCAAAGUAUAUAGUUA	0.468 ± 0.045	0.0135 ± 0.0031
UGGACCUACAGCUUGCAUUGUAUUUAGUAA	0.559 ± 0.035	0.025 ± 0.0056
UCCUCCUACAGCUUGCAUUGUAUUUACUUA	0.388 ± 0.031	0.0162 ± 0.0032
UCCACCUACCGCUUGCAUAGUAUUUAGUUA	1.11 ± 0.05	0.0544 ± 0.0086
UCGACCUACUGCUUGCAUAGUAUUUACUUA	0.278 ± 0.017	0.0322 ± 0.0038
UCGACCUACAGCUUCGAUAGUAUUUAGUUA	0.911 ± 0.058	0.00251 ± 0.0018
UCCUCCUACAGGUUGCAUAGUAUUUAGAAA	0.313 ± 0.036	0.0024 ± 0.0023
UCCUGGAACAGCUUGCAUAGUAUUUUCAUA	0.193 ± 0.034	0.0038 ± 0.0023
UCGUCCUACAGCUUGCAUAGUAUUUAGUAA	0.82 ± 0.037	0.0372 ± 0.0076
AGGACCUACAGCUUGCAUAGUACUUAGUUA	0.929 ± 0.07	0.0524 ± 0.0094
UCCUCCUACAUGCUUGCAUAGUAUUUAGUUA	0.453 ± 0.028	0.034 ± 0.006
UCCUCCUUCACCUUGCAUAGUAUUUAGUUA	0.719 ± 0.055	0.0368 ± 0.0064
AGGACCUAGAGCUUGCAUAGUAUUAAGUUA	0.56 ± 0.058	0.0254 ± 0.0057
UCCUCCUAGAGCAUGCAUAGUAUUUAGUUA	0.586 ± 0.055	0.0146 ± 0.0025
UCCUCCUACAGCUUGGAUAGUAUUUAGUUA	1.44 ± 0.045	0.0511 ± 0.0092
UCCUGGUACAGCUUGCAUAGUAUUUUCUUA	0.0818 ± 0.03	0.00733 ± 0.0035
UGGUCCUACAGCUUGCAUAGUAUUUACUUA	0.339 ± 0.033	0.0376 ± 0.0072
UCCACCUACAGCUUGCAUAGUACUUUAGUUA	0.447 ± 0.035	0.00964 ± 0.0027
AGGACCAACAGCUUGCAAAGUAUUUAGUUA	1.18 ± 0.038	0.0503 ± 0.01
UCCUGGAUGAGCUUGCAUAGUCUUUAGUUA	0.372 ± 0.03	0.0359 ± 0.0096
UCCUGGUACAGCUUGCAUAGAAUUAAGUUA	0.219 ± 0.04	0.00659 ± 0.0019

Sequence	pre-steady-state target cleavage rate [1]	pre-steady-state target cleavage rate [2]
UGGACCAUGAGCUUGCAUAGUAUUUAGUUA	0.994 ± 0.067	0.0437 ± 0.0085
AGCACCUACAGGUUGCAUAGUAUUUAGUUA	1.11 ± 0.26	0.0115 ± 0.0035
UCCUGGAUCAGCUUGCAUAGUAUUAACUUA	0.108 ± 0.02	0.00984 ± 0.0034
UCCUGCUACAGCUUGCAUUGUAUUUAGAUA	0.226 ± 0.027	0.0085 ± 0.003
UCCUGGAUGAGCUUGCAUAGGAUUUAGUUA	0.0129 ± 0.0034	0.00618 ± 0.003
UGGACCUAGAGGUUGCAUAGUAUUUAGUUA	0.513 ± 0.07	0.0198 ± 0.003
UCGACCUACAGCGUUGCAUAGUAUUUAGUUA	1.21 ± 0.073	0.0561 ± 0.01
UCCUGGAUCAGGCUUGCAUAGUAUUUAGUUA	0.833 ± 0.032	0.0744 ± 0.014
UCCUGCUACAGCUUGCAAAGUUUUUAGUUA	0.283 ± 0.03	0.0158 ± 0.0037
UCGACCUACAGCUUGCAUAGUUUUAAGUUA	0.276 ± 0.022	0.0137 ± 0.0034
UCCUGGAUCAGCUUGCAAAGUAUUUUGUUA	0.561 ± 0.04	0.0138 ± 0.0039
UCCUGGUACAGCUUGCAUAGUAUUUAGUUUA	0.866 ± 0.053	0.0646 ± 0.014
UCCUGGAUGUGCUUGCAUAGUAUUUACAUA	0.08 ± 0.017	0.0058 ± 0.0031
UCGAGCUACAGCAUGCAUAGUAUUUAGUUA	1.19 ± 0.054	0.0332 ± 0.0062
UCCACCUACUGCUUGCAUAGAAUUUAGUUA	0.313 ± 0.027	0.0147 ± 0.0038
UCGACCUACUGCAUGCAUAGUAUUUAGUUA	1.33 ± 0.056	0.0324 ± 0.0055
UCCACCUACAGCUUGCUUAGUAUUUAGAUA	0.272 ± 0.035	0.00853 ± 0.0027
UCCUGGAUGUCCUUGCAUAGUAUGUAGUUA	0.0151 ± 0.0053	0.0033 ± 0.0027
UCCUGGUACAGCUUGCAUAGUAUUUAGUUA [g2:g24:cont:t1A]	0.82 ± 0.041	0.0692 ± 0.013
AGGACCUACAGCUUGCAAAGUAUUUAGAAA	0.432 ± 0.045	0.00862 ± 0.0026
UCCACCUUCAGCUUGCAUAGUAUAUAGUUA	0.569 ± 0.051	0.0216 ± 0.0061
UCCUGCUACAGCUUGCAUAGUAUUUAGUUUA	1.17 ± 0.077	0.0574 ± 0.012
UCGACCUACAGCUUGCAUAGUAUUAAGAAA	0.387 ± 0.044	0.00277 ± 0.0027
UCGACCAACAGCUUGCAAAGUAUUUAGUUA	1.29 ± 0.043	0.0448 ± 0.01
UCCUGCAUGAGCUUGCAUAGUAUUUAGUAA	0.824 ± 0.1	0.0221 ± 0.0066
